Test results taken from article PMC12040169 (PLOS Biology, 2025).
The list shows a part of the results.

tested on: T1, C. trachomatis L2/434/Bu expressing GFP (CTL2-GFP); parameters: species or system HeLa; C. trachomatis total inclusion area by high-content imaging, normalised to DMSO; settings: total inclusion area; 28.5 h, 10 µM; inhibitor
T1 construct: L2/434/Bu GFP intracellular growth in HeLa cells
Procedure, shortened: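 High-content images of fixed, Hoechst-stained infected cultures supply inclusion area and count (growth) plus nuclei number (viability), complementing bulk GFP/resorufin fluorescence. MIC determination is unchanged from the primary assay.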

Row | SMILES | % of control remaining
1 | CCOC(=O)c1c(CN(C)C)n(-c2ccccc2)c2cc(Br)c(O)cc12 [CBK261309C] | 98.6604
2 | COCCNC(=O)c1cc(-c2cccc(N(C)C)c2)cnc1NCC1CC1 [CBK076288] | 99.5259
3 | NC(=O)[C@@H]1C[C@@H](O)[C@H](O)[C@H]2[C@@H]1N(c1ccc(Cl)cc1)C(=S)N2Cc1cccs1 [CBK288930] | 116.787
4 | O=C(N[C@H]1C[C@H]2C(=O)Nc3ccccc3C(=O)N2C1)c1ccccc1 [CBK289354] | 78.4959
5 | Cc1noc(C)c1C(=O)N1CCCCCC1c1ccn(C)n1 (centres unmarked) [CBK284917] | 83.7822
6 | O=C(C(c1ccccc1)c1ccccc1)N1CCN(c2ncccn2)CC1 [CBK144504] | 105.808
7 | COc1cccc2cc(C(=O)NCc3ccc4c(c3)OCO4)oc12 [CBK149797] | 91.1222
8 | COc1cc(C)cc(OC)c1-c1ncnc(C)c1C [CBK306762] | 66.5732
9 | CO[C@@]12CC[C@@H](O)C[C@@H]1N(C(=O)c1cccc3c1NCCC3)CC2 [CBK306741] | 77.1963
10 | O=C(O)c1ccc(OCCN2CCOCC2)cc1 [CBK287038] | 75.5227
11 | Cc1ccc(C)c2[nH]c(=O)c(CN(CCN3CCOCC3)Cc3nnnn3Cc3ccccc3)cc12 [CBK108063] | 103.49
12 | CNC(=O)C1(Cc2ccccc2-c2cccs2)CCN(C(=O)CCc2ccccc2)CC1 [CBK285900] | 94.6432
13 | CCc1ccc2[nH]c3nc(NN)nnc3c2c1 [CBK262734] | 59.9588
14 | O=C1NC2(CCc3ccccc31)CCN(C(=O)c1cccnc1)C2 (centres unmarked) [CBK283335] | 117.019
15 | O=C(NCCn1c(-c2ccncc2)nc2ccccc21)c1ccc(F)c(F)c1 [CBK288577] | 100.011
16 | CCC1CCCCN1S(=O)(=O)c1ccc(-n2ncc(Cl)c(Cl)c2=O)cc1 (centres unmarked) [CBK305038] | 0
17 | Cc1cc(C(=O)N2CCC(c3nc(C)n4c(C)csc34)CC2)on1 [CBK285247] | 74.5896
18 | O=C(CCc1ccc(F)cc1)N1CCC(c2cccc(Cc3ccccc3)n2)CC1 [CBK286511] | 101.064
19 | CC(C)(C)OC(=O)N1CCN(S(=O)(=O)c2ccc(Cl)c([N+](=O)[O-])c2)CC1 [CBK003165] | 63.3322
20 | COc1cc(NC(=O)CN2CCc3c(c(CO)nn3C)C2)cc(OC)c1 [CBK306841] | 47.4829
21 | OC(CNc1cccc2ccccc12)Cn1c2ccc(Br)cc2c2cc(Br)ccc21 (centres unmarked) [CBK261420] | 70.2787
22 | CN(C)CCNC(=O)c1cc(-c2ccc(Cl)cc2)on1 [CBK116711T] | 99.4481
23 | CCOCCCNC(=O)/C(=C/c1cccnc1)NC(=O)c1ccccc1 [CBK126866] | 87.4506
24 | O=C1NCCNC(=O)C2(C/C=C/COc3ccccc31)CCN(C(=O)CCC1CCCC1)CC2 [CBK291995] | 91.1396
25 | Nc1nnnn1/N=C/c1cc(Cl)cc(Cl)c1OCc1ccc(Cl)cc1Cl [CBK263853] | 94.0556
26 | O=C(CSc1nc2sc3c(c2c(=O)n1Cc1ccco1)CCC3)NCc1ccco1 [CBK268499] | 108.016

Row | SMILES | % of control remaining
27 | CSc1cccc(NC(=O)Nc2ccc3c(c2)OCCO3)c1 [CBK300527] | 108.527
28 | O=c1[nH]nc2c3c4c(sc3ncn12)CCCC4 [CBK284235] | 48.8625
29 | NC(=O)CC1C(=O)N(c2ccc(F)cc2)C(=O)N1NC(=O)CCc1ccccc1 (centres unmarked) [CBK269033] | 54.3742
30 | COc1ccc2[nH]cc(CCNC(=O)c3ccc4[nH]c(=O)[nH]c4c3)c2c1 [CBK122721] | 111.612
31 | COC(=O)C1=C(C)N=c2s/c(=C/c3ccc(OC)c(OC(C)=O)c3)c(=O)n2C1c1cccs1 (centres unmarked) [CBK077753] | 105.024
32 | Cc1ccc(CNC(=O)Cn2nnc(-c3ccc(CN4CC(C)OC(C)C4)cc3)n2)cc1 (centres unmarked) [CBK144554C] | 32.0518
33 | O=C(O)CCN1CCN(c2ccc(F)cc2)CC1 [CBK287262] | 65.6017
34 | O=C(CSc1nnc(-c2ccccc2)n1-c1ccc(Cl)cc1)NCc1ccco1 [CBK266637] | 120.228
35 | O=C(CCCn1ccnc1)N1CCc2[nH]c3ccccc3c2C1 [CBK281872] | 108.838
36 | COc1cc([N+](=O)[O-])ccc1NC(=O)CCN1C(=O)C2C3CCC(C3)C2C1=O (centres unmarked) [CBK265141] | 75.3067
37 | Cc1nc(Nc2ccc(Cl)cc2)nc(Oc2ccccc2)n1 [CBK003915] | 87.7396
38 | C[C@H](NC(=O)N1CCN(C(=O)CCCc2c[nH]c3ccccc23)CC1)C(=O)O [CBK286749] | 105.954
39 | CC1CCN(C(=O)CN2C(=O)N3CCN=C3c3ccccc32)CC1 [CBK283946] | 87.6299
40 | CC(=O)Nc1ccc(-c2nnc(SCc3c(Cl)cccc3[N+](=O)[O-])n2C)cc1 [CBK265823] | 95.2356
41 | COCCNC(=O)c1cc(-c2ccccc2)cnc1N(C)S(C)(=O)=O [CBK076484] | 81.9011
42 | COC(=O)CC1C(=O)NCCN1C(=S)NC(=O)c1ccc(-c2ccccc2)cc1 (centres unmarked) [CBK268711] | 125.206
43 | CN1CCC[C@H]1C(=O)N1CCN(c2ncccn2)CC1 [CBK144528] | 84.7497
44 | CN(CC(=O)Nc1ccccc1N1CCCC1)Cc1cnn(Cc2ccccc2)c1 [CBK295187] | 101.668
45 | Nc1nonc1C(=O)NCCNc1ccc([N+](=O)[O-])cc1 [CBK262577] | 72.5857
46 | COc1ccc(C(C)C)cc1-c1cnc2[nH]c(=O)n([C@@H](CO)C(C)C)c2n1 [CBK064495] | 90.6308
47 | CC(NC(=O)Cc1ccccc1F)c1nc2cccnc2n1C(C)C (centres unmarked) [CBK283829] | 80.6022
48 | Cc1nc2c(c(=O)[nH]1)CN(C(=O)Cc1c(F)cccc1Cl)CC2 [CBK283589] | 77.5924
49 | CC1(Cn2ccnc2-c2ccccc2C(=O)O)CCCO1 (centres unmarked) [CBK307439] | 83.7235
50 | CN(CC(=O)NCc1ccccc1OC1CCNC1)C(=O)c1ccccc1 (centres unmarked) [CBK028298T] | 104.406
51 | COC(=O)c1cscc1NC(=O)c1cnc(-c2cccc(C)c2)c(-c2ccc(C(C)=O)s2)c1 [CBK036760] | 98.1747
52 | NS(=O)(=O)c1ccc(CNC(=O)C2(c3ccccc3)CCCC2)cc1 [CBK161523] | 99.0726

Row | SMILES | % of control remaining
53 | CC(=O)NCC(=O)N1CCC[C@@H]2[C@H]1CCCCc1ccccc1OCC(=O)N2C [CBK292011] | 85.4481
54 | CN(Cc1ccc(-c2ccc(S(C)(=O)=O)cc2)nc1)C1CCN(C(=O)CC2CCCCC2)CC1 [CBK164105T] | 92.2051
55 | OCc1ccccc1-c1cn2ccnc2c(N[C@@H]2CCN(Cc3ccccc3)C2)n1 [CBK037969] | 118.383
56 | Cc1ccc(-n2c(SCC(=O)N3CCOCC3)nnc2-c2ccccc2O)c(C)c1 [CBK269112] | 100.554
57 | NS(=O)(=O)c1ccc(Nc2nc(-c3cccs3)cs2)cc1 [CBK262502] | 82.4114
58 | CC(=O)N1CCc2cc(C(O)CN3CCCC4CCCCC43)ccc21 (centres unmarked) [CBK282924] | 114.949
59 | CC(=O)Nc1cccc(NC(=O)c2cc(-c3ccncc3)nc3ccc(Cl)cc23)c1 [CBK267773] | 99.3835
60 | Cc1ccccc1-c1ccccc1CC1(C(N)=O)CCN(C(=O)CC2CCCCC2)CC1 [CBK285723] | 117.483
61 | COc1ccc(-c2nc(NC(=O)c3ccc(S(N)(=O)=O)cc3)cnc2-c2cccc(C)c2)cc1 [CBK037559] | 130.218
62 | CN(C)CCCNC(=O)c1cccc(Nc2cncc(-c3ccc(O)cc3)n2)c1 [CBK122669] | 117.362
63 | O=C(Cn1ccc2ccnc(-c3cccs3)c21)NCc1ccncc1 [CBK284734] | 100.275
64 | CC1CCCC(C)N1CC(O)COc1ccc(/N=C/c2ccccc2)cc1 (centres unmarked) [CBK261764] | 88.8489
65 | CN1CCN(c2cccc(-c3cc4ccccc4s3)n2)CC1 [CBK037019] | 95.1222
66 | COc1ccc(CCN(C)C(=O)CCCc2cc3ccccc3[nH]2)cc1OC [CBK051152] | 84.5187
67 | COc1ccccc1-c1cc2nc(C)cc(N3CCOCC3)n2n1 [CBK304532] | 26.5683
68 | Fc1ccccc1CN1CCC(Oc2nccnc2OCC2COc3ccccc3O2)CC1 (centres unmarked) [CBK082979T] | 95.0239
69 | C=C[C@H]1C[N@@]2CC[C@H]1C[C@@H]2CNS(=O)(=O)c1ccc(NC(C)=O)cc1 [CBK288749] | 99.6842
70 | C=CCNC(=O)CSc1nc2sc(C)c(C)c2c(=O)[nH]1 [CBK287350] | 80.3213
71 | Ic1cnn(Cc2nc(-c3ccccc3)no2)c1 [CBK269901] | 107.396
72 | CN(C)CCCN1C(=O)C(O)=C(C(=O)c2ccncc2)C1c1ccccc1 (centres unmarked) [CBK287779] | 77.0812
73 | Cc1nc(Nc2ccc(Cl)cc2)nc(N2CCN(C)CC2)n1 [CBK023855] | 97.3718
74 | O=C(Nc1ccc2c(c1)OCCO2)N1CCN(c2ccccc2)CC1 [CBK155187] | 108.368
75 | CCOC(=O)c1c(NC(=O)Cn2cnc([N+](=O)[O-])n2)sc2c1CCC(C)C2 (centres unmarked) [CBK263058] | 78.7673
76 | Clc1ccc(Nc2ncnc3c2cnn3-c2ccc(Cl)cc2)cc1 [CBK287356] | 89.912
77 | Cc1cnc2c(N3CCCC3)nc(-c3cccnc3)cn12 [CBK092277] | 100.829
